Some of the results follow. The full chains were built here from the parent and the listed change. Inactive controls read about 0.05.
B1: TEV protease; numbered along this chain (parent)
chain: MGESLFKGPRDYNPISSSICHLTNESDGHTTSLYGIGFGPFIITNKHLFRRNNGTLVVQSLHGVFKVKDTTTLQQHLVDGRDMIIIRMPKDFPPFPQKLKFREPQREERICLVTTNFQTKSMSSMVSDTSCTFPSGDGIFWKHWIQTKDGQCGSPLVSTRDGFIVGIHSASNFTNTNNYFTSVPKNFMELLTNQEAQQWVSGWRLNADSVLWGGHKVFMVKPEEPFQPVKEATQL

Variants of: B1
Test: raw area under fraction-flipped curve 0-4 h after induction (AUC4h, not background-subtracted), DNA-recorder readout of cleavage of the substrate (dimensionless); higher = more cleavage of the substrate by the protease variant
Details: temperature: 34 °C; time window: 0-4 h after rhamnose induction
Procedure: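 In vivo DNA recorder in E. coli TOP10(DE3) ΔrhaA at 34 °C. Each TEVp single-site mutant (parent TEVp 0) is paired with a single-site variant of the 7-mer TEVs (canonical ENLYFQ|S). The substrate sits between flexible linkers in a Bxb1-sfGFP-TEVs-SsrA fusion, so cleavage stabilises Bxb1 and speeds flipping of a recombination array, read by NGS. The value is the raw area under the fraction-flipped curve over 0-4 h after rhamnose induction (AUC4h), with ≥20 reads per time point. It is not background-subtracted; inactive controls average about 0.047.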
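Note: Bxb1 expression induced with 0.2% (w/v) L-rhamnose at OD600 near 0.5, cultures sampled hourly, flipped fraction per protease–substrate barcode pair counted by paired-end Illumina sequencing.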

Variant | area with substrate ENLYFFS | area with substrate ENLYFKS | area with substrate ENLYFLS | area with substrate ENLYFMS | area with substrate ENLYFNS | area with substrate ENLYFSS | area with substrate ENLYFWS | area with substrate ENLYFIS | area with substrate ENLYFRS | area with substrate ENLYFYS
MGESLFKGPRDYNPISSSICHLTNESDGHTTSLYGIGFGPFIITNKHLFRRNNGTLVVQSLHGVFKVKDTTTLQQHLVDGRDMIIIRMPEDFPPFPQKLKFREPQREERICLVTTNFQTKSMSSMVSDTSCTFPSGDGIFWKHWIQTKDGQCGSPLVSTRDGFIVGIHSASNFTNTNNYFTSVPKNFMELLTNQEAQQWVSGWRLNADSVLWGGHKVFMVKPEEPFQPVKEATQL [K90E] | 0.0682 | 0.0626 | 0.0574 | 0.075 | 0.0733 | 0.0475 | 0.0557 |  |  | 
MGESLFKGPRDYNPISSSICHLTNESDGHTTSLYGIGFGPFIITNKHLFRRNNGTLVVQSLHGVFKVKDTTTLQQHLVDGRDMIIIRMPKDFPPFPQKLKFREPQREERICLVTTNFQTKSMSSMVSDTSCTFPSGDGIFWKHWIQTKDGQCGSPLVSTRDGFIVGIHSASNFTNTNNYFTSVPKNFMELLTNQEAQQWVSGWRQNADSVLWGGHKVFMVKPEEPFQPVKEATQL [L205Q] | 0.0792 |  |  | 0.0673 |  |  | 0.0511 | 0.0583 | 0.0532 | 0.0617
MGESLFKGPRDYNPISSSICHLTNESDGHTTSLYGIGFGPFIITNKHLFRRNNGTLVVQSLHGVFKVKDTTTLQQHLVDGRDMIIIRMPKDFPPFPQKLKFREPQREERICLVTTNFQTKSMSSMVSDTSCTFPSGDGIFWKHWIQTKDGQCGSPLVSTRDGFIVGIHSASNFTNTNNYFTSVPKNFMELLTNQEAQQWVSGWRLNADSVLWGGTKVFMVKPEEPFQPVKEATQL [H215T] | 0.0754 |  |  | 0.0564 | 0.0617 | 0.0553 |  |  | 0.0532 | 0.0661
MGESLFKGPRDYNPISSSICHLTNESDGHTTSLYGIGFGPFIITNKHLFRRNNGTLVVQSLHGVFKVKDTTTLQQHLVDGRDMIIIRMPKDFPPFPQKLKFREPQREERICLVTTNFQTKSMSSMVSDTSCTFPSGDGIFWKHWIQTKDGQCGSPLVSHRDGFIVGIHSASNFTNTNNYFTSVPKNFMELLTNQEAQQWVSGWRLNADSVLWGGHKVFMVKPEEPFQPVKEATQL [T159H] | 0.0656 |  | 0.0616 |  |  |  | 0.0533 | 0.0248 | 0.0604 | 
MGESLFKGPRDYNPISSSICHLTNESDGHTTSLYGIGFGPFIITNKHLFRRNNGTLVVQSLHGVFKEKDTTTLQQHLVDGRDMIIIRMPKDFPPFPQKLKFREPQREERICLVTTNFQTKSMSSMVSDTSCTFPSGDGIFWKHWIQTKDGQCGSPLVSTRDGFIVGIHSASNFTNTNNYFTSVPKNFMELLTNQEAQQWVSGWRLNADSVLWGGHKVFMVKPEEPFQPVKEATQL [V67E] | 0.047 |  |  |  |  |  |  |  |  | 
MGESLFMGPRDYNPISSSICHLTNESDGHTTSLYGIGFGPFIITNKHLFRRNNGTLVVQSLHGVFKVKDTTTLQQHLVDGRDMIIIRMPKDFPPFPQKLKFREPQREERICLVTTNFQTKSMSSMVSDTSCTFPSGDGIFWKHWIQTKDGQCGSPLVSTRDGFIVGIHSASNFTNTNNYFTSVPKNFMELLTNQEAQQWVSGWRLNADSVLWGGHKVFMVKPEEPFQPVKEATQL [K7M] | 0.116 |  |  | 0.068 |  |  | 0.0506 | 0.0659 |  | 
MGESLFKGPRDYNPISSSICHLTNESDGHTTSLYGIGFGPFIITNKHLFRRNNGTLVVQSLHGVFKVKDTTTLNQHLVDGRDMIIIRMPKDFPPFPQKLKFREPQREERICLVTTNFQTKSMSSMVSDTSCTFPSGDGIFWKHWIQTKDGQCGSPLVSTRDGFIVGIHSASNFTNTNNYFTSVPKNFMELLTNQEAQQWVSGWRLNADSVLWGGHKVFMVKPEEPFQPVKEATQL [Q74N] |  | 0.0648 |  | 0.0613 |  |  |  | 0.0628 | 0.0525 | 0.0401
MGESLFKGPRDYNPISSSICHLTNESDGHTTSLYGIGFGPFIITNKHLFRRNNGTLVVQSLHGVFKVKDTTTLQQHLVDGRDMIIIRMPKDFPPQPQKLKFREPQREERICLVTTNFQTKSMSSMVSDTSCTFPSGDGIFWKHWIQTKDGQCGSPLVSTRDGFIVGIHSASNFTNTNNYFTSVPKNFMELLTNQEAQQWVSGWRLNADSVLWGGHKVFMVKPEEPFQPVKEATQL [F95Q] |  |  |  | 0.07 |  | 0.0459 |  |  | 0.0365 | 
MGESLFKGPRDYNPISSSICHLTNESDGHTTSLYGIGFGPFIITNKHLFRRNNGTLVVQSLHGVFKVKDTTTLQQHLVDGRDMIIIRMPKDFPPFPQKLKFREPQREERICLVTTNFQTKSMSSMVSDTSCTFPSGDGIFWKHWIQTKDGQCGSPLVSTRDGFIVGIHSAWNFTNTNNYFTSVPKNFMELLTNQEAQQWVSGWRLNADSVLWGGHKVFMVKPEEPFQPVKEATQL [S171W] |  |  |  | 0.0657 | 0.0634 |  |  |  |  | 0.0786
MGESLFKGPRDYNPISSSICHLTNESDGHTTSLYGIGFGPFIITNKHLFRRNNGTLVVQSLHGVFKVKDTTTLQQHLVDGRDMIIIRMPKDFPPFPQKLKFREPQREERICLVTTNFQTKSMSSMVSDTSCTFPSGDGIFWKHWIQTKDGQCGSPLVSTRDGFIVGIHSASNFTNTNNYFDSVPKNFMELLTNQEAQQWVSGWRLNADSVLWGGHKVFMVKPEEPFQPVKEATQL [T181D] |  |  | 0.0528 |  | 0.0607 | 0.0793 |  | 0.0555 |  | 0.0636
MGESLFKGPRDYNPISSSICHLTNESDGHTTSLYGIGFGPFIITNKHLFRRNNGTLVVQSLHGVFKVKDTTTLQQHLVDGRDMIIIRMPKDFPPFPQKLKFREPQREERICLVTTNFQTKSMSSMVSDTSCTFPSGDGIFWKHWIQTKDGQCGSPLVSTRDGFIVGIHSASNFTNTNNYFTSVPKNFMELLTFQEAQQWVSGWRLNADSVLWGGHKVFMVKPEEPFQPVKEATQL [N193F] |  |  |  |  |  | 0.0541 | 0.0515 | 0.0438 | 0.0626 | 0.0564

Same assay, conditions: temperature: 34 °C; time window: 0-4 h after rhamnose induction

Variant | area with substrate ENLYFGS | area with substrate ENLYFHS | area with substrate ENLYFPS | area with substrate ENLYFTS | area with substrate ENLYFVS
MGESLFKGPRDYNPISSSICHLTNESDGHTTSLYGIGFGPFIITNKHLFRRNNGTLVVQSLHGVFKVKDTTTLQQHLVDGRDMIIIRMPKDFPPFPQKLKFREPQREERICLVTTNFQTKSMSSMVSDTSCTFPSGDGIFWKHWIQTKDGQCGSPLVSTRDGFIVGIHSASNFTNTNNYFTSVPKNFMELLTNQEAQQWVSGWRLNADSVLWGGTKVFMVKPEEPFQPVKEATQL [H215T] | 0.0527 | 0.0717 | 0.0676 | 0.0539 | 
MGESLFKGPRDYNPISSSICHLTNESDGHTTSLYGIGFGPFIITNKHLFRRNNGTLVVQSLHGVFKVKDTTTLQQHLVDGRDMIIIRMPKDFPPFPQKLKFREPQREERICLVTTNFQTKSMSSMVSDTSCTFPSGDGIFWKHWIQTKDGQCGSPLVSHRDGFIVGIHSASNFTNTNNYFTSVPKNFMELLTNQEAQQWVSGWRLNADSVLWGGHKVFMVKPEEPFQPVKEATQL [T159H] |  | 0.057 |  |  | 
MGESLFKGPRDYNPISSSICHLTNESDGHTTSLYGIGFGPFIITNKHLFRRNNGTLVVQSLHGVFKEKDTTTLQQHLVDGRDMIIIRMPKDFPPFPQKLKFREPQREERICLVTTNFQTKSMSSMVSDTSCTFPSGDGIFWKHWIQTKDGQCGSPLVSTRDGFIVGIHSASNFTNTNNYFTSVPKNFMELLTNQEAQQWVSGWRLNADSVLWGGHKVFMVKPEEPFQPVKEATQL [V67E] |  |  | 0.0454 | 0.0582 | 
MGESLFMGPRDYNPISSSICHLTNESDGHTTSLYGIGFGPFIITNKHLFRRNNGTLVVQSLHGVFKVKDTTTLQQHLVDGRDMIIIRMPKDFPPFPQKLKFREPQREERICLVTTNFQTKSMSSMVSDTSCTFPSGDGIFWKHWIQTKDGQCGSPLVSTRDGFIVGIHSASNFTNTNNYFTSVPKNFMELLTNQEAQQWVSGWRLNADSVLWGGHKVFMVKPEEPFQPVKEATQL [K7M] | 0.0807 |  | 0.0634 | 0.0513 | 
MGESLFKGPRDYNPISSSICHLTNESDGHTTSLYGIGFGPFIITNKHLFRRNNGTLVVQSLHGVFKVKDTTTLNQHLVDGRDMIIIRMPKDFPPFPQKLKFREPQREERICLVTTNFQTKSMSSMVSDTSCTFPSGDGIFWKHWIQTKDGQCGSPLVSTRDGFIVGIHSASNFTNTNNYFTSVPKNFMELLTNQEAQQWVSGWRLNADSVLWGGHKVFMVKPEEPFQPVKEATQL [Q74N] | 0.0566 |  | 0.0609 |  | 0.0529
MGESLFKGPRDYNPISSSICHLTNESDGHTTSLYGIGFGPFIITNKHLFRRNNGTLVVQSLHGVFKVKDTTTLQQHLVDGRDMIIIRMPKDFPPQPQKLKFREPQREERICLVTTNFQTKSMSSMVSDTSCTFPSGDGIFWKHWIQTKDGQCGSPLVSTRDGFIVGIHSASNFTNTNNYFTSVPKNFMELLTNQEAQQWVSGWRLNADSVLWGGHKVFMVKPEEPFQPVKEATQL [F95Q] | 0.0372 |  |  |  | 
MGESLFKGPRDYNPISSSICHLTNESDGHTTSLYGIGFGPFIITNKHLFRRNNGTLVVQSLHGVFKVKDTTTLQQHLVDGRDMIIIRMPKDFPPFPQKLKFREPQREERICLVTTNFQTKSMSSMVSDTSCTFPSGDGIFWKHWIQTKDGQCGSPLVSTRDGFIVGIHSAWNFTNTNNYFTSVPKNFMELLTNQEAQQWVSGWRLNADSVLWGGHKVFMVKPEEPFQPVKEATQL [S171W] | 0.0733 |  |  | 0.0497 | 
MGESLFKGPRDYNPISSSICHLTNESDGHTTSLYGIGFGPFIITNKHLFRRNNGTLVVQSLHGVFKVKDTTTLQQHLVDGRDMIIIRMPKDFPPFPQKLKFREPQREERICLVTTNFQTKSMSSMVSDTSCTFPSGDGIFWKHWIQTKDGQCGSPLVSTRDGFIVGIHSASNFTNTNNYFDSVPKNFMELLTNQEAQQWVSGWRLNADSVLWGGHKVFMVKPEEPFQPVKEATQL [T181D] | 0.0543 |  | 0.0721 |  | 
MGESLFKGPRDYNPISSSICHLTNESDGHTTSLYGIGFGPFIITNKHLFRRNNGTLVVQSLHGVFKVKDTTTLQQHLVDGRDMIIIRMPKDFPPFPQKLKFREPQREERICLVTTNFQTKSMSSMVSDTSCTFPSGDGIFWKHWIQTKDGQCGSPLVSTRDGFIVGIHSASNFTNTNNYFTSVPKNFMELLTFQEAQQWVSGWRLNADSVLWGGHKVFMVKPEEPFQPVKEATQL [N193F] |  | 0.0427 |  |  | 0.0788
